Data: the supplement of paper PMC9446081
Screen size: about 39,000 compounds; about 220 (0.56%) showed activity. This is one part of the list.

test system: Escherichia coli K-12 BW25113; experiment: relative growth (OD600 normalised to plate interquartile mean) (fraction); higher = less growth inhibition, active = 0.2 or less; settings: 50 µM; LB; incubation time: overnight (16-24 h)
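Further: static incubation at 37 °C against the wild-type strain, values averaged over two biological replicates.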

**Q.** With `C[C@H]1CN(C)[C@@H](C)C[C@@H]1n1[nH]c(=O)cc1N` as the molecule, how does the relative growth read?
**A.** inactive: 0.973

**Q.** `CC(C)c1ccc2c(c1O)CCC1C3=C(CCC21C)C(=O)OC3` (stereo not given) was tested. Which relative growth did it give?
**A.** inactive: 0.999

**Q.** For `O=C1NC(=O)C(=O)C(=O)N1`, which relative growth is on record?
**A.** inactive: 1

**Q.** With `OCC(Br)(Br)Br` as the molecule, how does the relative growth read?
**A.** inactive: 1.02

**Q.** With `CCN1C[C@]2(OC(=O)c3ccccc3NC(C)=O)CC[C@H](OC)[C@@]34[C@@H]2C[C@@H]([C@@H]13)[C@@]1(O)C[C@H](OC)[C@H]2C[C@@H]4[C@]1(O)[C@H]2OC` as the molecule, how does the relative growth read?
**A.** inactive: 1.01

**Q.** Which relative growth does the source give for `CCC(CO)NC(=O)C1C=C2c3cccc4c3c(cn4C)CC2N(C)C1.O=C(O)C=CC(=O)O` (stereo not given) here?
**A.** inactive: 0.905

**Q.** With `c1cc2c(c(N3CCNCC3)c1)OCCO2` as the molecule, how does the relative growth read?
**A.** inactive: 1

**Q.** How did the relative growth turn out when `C1COC2(CCOCC2)CN1` was run?
**A.** inactive: 0.986

**Q.** Which relative growth does the source give for `CC12CCC(O)CC1CCC1C2CC(O)C2(C)C(C3=CC(=O)OC3)CCC12O` (stereo not given) here?
**A.** inactive: 0.988

**Q.** Which relative growth does the source give for `COc1cc2c(cc1-c1cc3cc4ccoc4cc3oc1=O)OCO2` here?
**A.** inactive: 1

**Q.** How did the relative growth turn out when `CCCC(=O)O[C@H]1CN2CC[C@H](O)[C@@H]2[C@@H](O)[C@@H]1O` was run?
**A.** inactive: 0.985

**Q.** With `N#[N+]CC(=O)CC[C@H](N)C(=O)O` as the molecule, how does the relative growth read?
**A.** inactive: 1

**Q.** For `C[N+]1(C)CCCC(OC(=O)C(O)(c2ccccc2)c2ccccc2)C1.[Br-]` (stereo not given), which relative growth is on record?
**A.** inactive: 0.985

**Q.** With `CC=C1CC(C)C(O)(CO)C(=O)OCC2=CCN3CCC(OC1=O)C23` (stereo not given) as the molecule, how does the relative growth read?
**A.** inactive: 1.04

**Q.** With `COc1ccc(OC(=O)N(C)C[C@H]2OCc3ccccc3-c3c(n(C)c4ccccc34)C(=O)N([C@H](C)CO)C[C@@H]2C)cc1` as the molecule, how does the relative growth read?
**A.** inactive: 0.981

**Q.** With `CS(=N)(=O)CC[C@H](N)C(=O)O` (stereo not given in full) as the molecule, how does the relative growth read?
**A.** inactive: 0.983

**Q.** Which relative growth does the source give for `CC(C)[C@H]1CNC(=O)C1` here?
**A.** inactive: 0.976

**Q.** Which relative growth does the source give for `CN1CC2(CNC2)OCCS1(=O)=O` here?
**A.** inactive: 1.03

**Q.** How did the relative growth turn out when `CCNC1(c2cccs2)CCCCC1=O.Cl` (stereo not given) was run?
**A.** inactive: 1.03

**Q.** `C[C@@H](N)Cc1ccco1` was tested. Which relative growth did it give?
**A.** inactive: 0.916

**Q.** Which relative growth does the source give for `Cc1ccc2c(CCN)c(C)n(C)c2c1` here?
**A.** inactive: 1.02

**Q.** How did the relative growth turn out when `NCCc1cc(O)c(O)cc1O` was run?
**A.** inactive: 1.01

**Q.** How did the relative growth turn out when `C[C@@H]1O[C@@H](OC(=O)Cc2ccccc2)[C@H](O)[C@H](O)[C@H]1O` was run?
**A.** inactive: 0.981

**Q.** `NC[C@H](CC(=O)O)c1ccc(Cl)cc1` was tested. Which relative growth did it give?
**A.** inactive: 0.993

**Q.** For `COC(=O)C1=COC(C)C2CN3CCC4(C(=O)Nc5ccccc54)C3CC12` (stereo not given), which relative growth is on record?
**A.** inactive: 1.01

**Q.** How did the relative growth turn out when `CCC(=O)CCCCC[C@@H]1NC(=O)[C@H]2CCCCN2C(=O)[C@H]([C@@H](C)CC)NC(=O)[C@H](Cc2cn(OC)c3ccccc23)NC1=O` was run?
**A.** inactive: 0.957

**Q.** For `c1cnc2[nH]cc(CN3CCNCC3)c2c1`, which relative growth is on record?
**A.** inactive: 0.977

**Q.** With `COC(=O)C(c1ccccc1)C1CCCCN1.Cl` (stereo not given) as the molecule, how does the relative growth read?
**A.** inactive: 1.07

**Q.** How did the relative growth turn out when `COc1ccc(CCN)cc1O` was run?
**A.** inactive: 1

**Q.** For `OC1(c2cccnc2)CCNCC1`, which relative growth is on record?
**A.** inactive: 0.977

**Q.** With `CC(C)(C)C(=O)C(Oc1ccc(Cl)cc1)n1cncn1` (stereo not given) as the molecule, how does the relative growth read?
**A.** inactive: 1.14

**Q.** `COc1ccc2c(c1O)-c1c(OC)c(OC)cc3c1C(C2)N(C)CC3` (stereo not given) was tested. Which relative growth did it give?
**A.** inactive: 1.09

**Q.** How did the relative growth turn out when `Cl.NCCc1c[nH]c2ccc(O)cc12` was run?
**A.** inactive: 0.88

**Q.** With `COCC(=O)N[C@@H]1[C@@H]2CNC[C@@H]21` as the molecule, how does the relative growth read?
**A.** inactive: 0.973

**Q.** For `CNC1C(O)C(OC2C(N)CC(N)C(OC3OC(C(C)O)C(O)C(O)C3N)C2O)OCC1(C)O` (stereo not given), which relative growth is on record?
**A.** active: 0.0438

**Q.** `COC(=O)C[C@](O)(CCC(C)(C)O)C(=O)O[C@@H]1C(OC)=C[C@]23CCCN2CCc2cc4c(cc2[C@H]13)OCO4` was tested. Which relative growth did it give?
**A.** inactive: 1.02

**Q.** How did the relative growth turn out when `Oc1ccc(N2CCNCC2)cc1` was run?
**A.** inactive: 1.02

**Q.** Which relative growth does the source give for `NC[C@@H](CC(=O)O)c1ccc(Cl)cc1` here?
**A.** inactive: 1.02

**Q.** `CCCCCCCCCCCCCC(=O)O[C@@H]1[C@@H](C)[C@@]2(O)[C@@H](C=C(CO)C[C@]3(O)C(=O)C(C)=C[C@@H]23)[C@@H]2C(C)(C)[C@]12OC(C)=O` was tested. Which relative growth did it give?
**A.** inactive: 1.02

**Q.** For `C=CCN1C(=O)NC(=O)/C(=C/c2ccco2)C1=O`, which relative growth is on record?
**A.** inactive: 0.971

**Q.** `CCN(C(C)=O)c1cccc(-c2ccnc3c(C#N)cnn23)c1` was tested. Which relative growth did it give?
**A.** inactive: 1.06

**Q.** With `COC12CC(COC(=O)c3cncc(Br)c3)CN(C)C1Cc1cn(C)c3cccc2c13` (stereo not given) as the molecule, how does the relative growth read?
**A.** inactive: 0.941

**Q.** For `O=[N+]([O-])c1ccc([As](=O)(O)O)cc1`, which relative growth is on record?
**A.** inactive: 0.967

**Q.** For `CN(C)NC(=O)CCC(=O)O`, which relative growth is on record?
**A.** inactive: 1.01

**Q.** `CC1(C)C(C=C(Cl)Cl)C1C(=O)OCc1cccc(Oc2ccccc2)c1` (stereo not given) was tested. Which relative growth did it give?
**A.** inactive: 1.05

**Q.** `COc1ccc2c(c1)[nH]c1c(C)nccc12` was tested. Which relative growth did it give?
**A.** inactive: 0.897

**Q.** Which relative growth does the source give for `CN1C(=O)NC(=O)/C(=C\C=C\c2ccco2)C1=O` here?
**A.** inactive: 1.02

**Q.** `O=C(c1ccccc1)C12CN3CN(CN(C3)C1)C2` was tested. Which relative growth did it give?
**A.** inactive: 1.01

**Q.** `O=C(O)Cc1cccnc1C(=O)O` was tested. Which relative growth did it give?
**A.** inactive: 0.97

**Q.** With `Oc1c(Cl)c(Cl)c(Cl)c(Cl)c1Cl` as the molecule, how does the relative growth read?
**A.** inactive: 0.738

**Q.** How did the relative growth turn out when `NC1N[C@H]2CCCC[C@@H]2N1` was run?
**A.** inactive: 0.993

**Q.** How did the relative growth turn out when `Cc1ccc(OC(=O)N(C)C[C@@H]2OCc3ccccc3-c3c(n(C)c4ccccc34)C(=O)N([C@H](C)CO)C[C@@H]2C)cc1` was run?
**A.** inactive: 1.01

**Q.** `O=C([O-])c1ccccc1-c1c2cc(Br)c(=O)cc-2oc2[c]([Hg][OH])c([O-])c(Br)cc12.[Na+].[Na+]` was tested. Which relative growth did it give?
**A.** inactive: 0.912

**Q.** Which relative growth does the source give for `CO[C@@H]1C[C@@H](C[C@H]2CC[C@H](C)[C@H]([C@@H](C)C(=O)O)O2)O[C@]2(O[C@](C)([C@H]3CC[C@@](C)([C@H]4O[C@@H]([C@H]5O[C@@](O)(CO)[C@H](C)C[C@@H]5C)C[C@@H]4C)O3)C[C@H]2C)[C@@H]1C` here?
**A.** inactive: 0.945

**Q.** How did the relative growth turn out when `Cc1ccc(OC(=O)N(C)C[C@@H]2OCc3ccccc3-c3c(n(C)c4ccccc34)C(=O)N([C@@H](C)CO)C[C@@H]2C)cc1` was run?
**A.** inactive: 1

**Q.** For `CN(C)C(=O)CN1CCN(C)C(=O)[C@]12CCN(c1ncccn1)C2`, which relative growth is on record?
**A.** inactive: 1.05

**Q.** How did the relative growth turn out when `CC(=O)OCC1=C(C(=O)O)N2C(=O)[C@@H](NC(=O)CCC[C@@H](N)C(=O)O)[C@@H]2SC1` was run?
**A.** inactive: 1.02

**Q.** Which relative growth does the source give for `COC(=O)[C@@H](N)CCCNC(N)=N[N+](=O)[O-]` here?
**A.** inactive: 1.01

**Q.** With `CCOC(OCC)P(=O)(O)CCCN` as the molecule, how does the relative growth read?
**A.** inactive: 1

**Q.** For `NCCc1c[nH]c2ccc(OCC(=O)O)cc12`, which relative growth is on record?
**A.** inactive: 1.01
